{
  "source": "paper PMC4336329",
  "about": "(PLoS ONE, 2015)",
  "note": "The campaign covered roughly 310,000 compounds. About 2,200 (0.71%) showed an effect of 50% or more. Effects have a minus sign here. Some of the results follow.",
  "data": [
    {"target": "human ether-à-go-go-related gene (hERG) potassium channel (human, UniProt Q12809)", "sequence (Q12809 whole entry, looked up)": "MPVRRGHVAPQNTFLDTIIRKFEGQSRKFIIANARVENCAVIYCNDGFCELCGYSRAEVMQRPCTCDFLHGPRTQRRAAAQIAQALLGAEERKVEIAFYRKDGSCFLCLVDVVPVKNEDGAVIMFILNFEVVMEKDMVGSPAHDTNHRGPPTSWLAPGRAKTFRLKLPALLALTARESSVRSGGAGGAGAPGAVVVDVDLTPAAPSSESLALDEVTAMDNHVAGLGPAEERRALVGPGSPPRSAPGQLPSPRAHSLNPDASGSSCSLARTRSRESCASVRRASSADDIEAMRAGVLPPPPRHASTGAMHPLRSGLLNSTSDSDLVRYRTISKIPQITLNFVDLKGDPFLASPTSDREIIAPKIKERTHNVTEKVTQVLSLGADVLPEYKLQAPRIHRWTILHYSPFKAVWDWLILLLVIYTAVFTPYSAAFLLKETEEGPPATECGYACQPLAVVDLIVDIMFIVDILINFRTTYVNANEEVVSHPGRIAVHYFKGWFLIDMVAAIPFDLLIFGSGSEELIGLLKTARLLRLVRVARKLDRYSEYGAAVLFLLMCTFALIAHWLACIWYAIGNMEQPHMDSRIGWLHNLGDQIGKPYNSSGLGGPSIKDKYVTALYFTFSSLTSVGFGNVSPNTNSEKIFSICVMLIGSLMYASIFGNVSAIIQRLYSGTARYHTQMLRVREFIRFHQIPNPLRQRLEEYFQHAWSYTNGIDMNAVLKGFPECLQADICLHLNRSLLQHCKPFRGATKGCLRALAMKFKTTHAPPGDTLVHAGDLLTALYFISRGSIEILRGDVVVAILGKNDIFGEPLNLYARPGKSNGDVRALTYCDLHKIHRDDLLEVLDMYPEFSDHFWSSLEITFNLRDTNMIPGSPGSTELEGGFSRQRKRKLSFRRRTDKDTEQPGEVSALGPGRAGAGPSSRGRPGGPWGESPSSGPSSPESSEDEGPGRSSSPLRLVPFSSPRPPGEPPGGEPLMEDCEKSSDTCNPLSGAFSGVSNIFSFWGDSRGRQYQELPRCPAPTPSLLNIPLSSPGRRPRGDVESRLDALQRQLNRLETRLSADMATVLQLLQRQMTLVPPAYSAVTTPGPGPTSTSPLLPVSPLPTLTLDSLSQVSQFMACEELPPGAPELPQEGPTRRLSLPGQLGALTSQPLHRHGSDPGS", "assay": "primary screen, population patch clamp on CHO cells stably expressing hERG", "units": {"hERG current change (%, negative = inhibition) at 1uM": "%"}, "values": [
      {"compound": "O=C(Nc1nnc(-c2ccc(Cl)cc2)o1)c1ccccc1Br", "hERG current change (%, negative = inhibition) at 1uM": 7.85},
      {"compound": "CCO[C@@H]1OC(C(=O)N2CCN(C)CC2)=C[C@H](C(C)(C)C)[C@H]1CCCO", "hERG current change (%, negative = inhibition) at 1uM": -3.06},
      {"compound": "COC(=O)c1ccc(OC)c(NS(=O)(=O)c2ccc(-n3cnnn3)cc2)c1", "hERG current change (%, negative = inhibition) at 1uM": -20.6},
      {"compound": "Cc1cc(C(C)(C)C)cc(S(=O)(=O)Nc2cccc(C(=O)O)c2)c1C", "hERG current change (%, negative = inhibition) at 1uM": 3.95},
      {"compound": "COc1ccc(NC(=S)NNC(=O)c2nnn(-c3ccccc3)c2C)cc1", "hERG current change (%, negative = inhibition) at 1uM": 9.14},
      {"compound": "CCSc1cnc(-c2ccccc2)n1CC.Cl", "hERG current change (%, negative = inhibition) at 1uM": 8.15},
      {"compound": "COC(=O)c1nn(-c2ccc(OC)cc2)c(=O)c2c(N)sc(C)c12", "hERG current change (%, negative = inhibition) at 1uM": 8.42},
      {"compound": "CCOC(=O)/C(=C\\c1cn(C)c2ccccc12)[N+](=O)[O-]", "hERG current change (%, negative = inhibition) at 1uM": 17},
      {"compound": "CC(NS(=O)(=O)c1ccc2c(c1)c(=O)n(C)c(=O)n2C)C(=O)NC1CCCCC1", "note": "(stereo not shown)", "hERG current change (%, negative = inhibition) at 1uM": 4.91},
      {"compound": "S=c1[nH]nc(-c2ccco2)n1-c1cccc2ccccc12", "hERG current change (%, negative = inhibition) at 1uM": 11.6},
      {"compound": "COc1ccc(CN2CCC(C(=O)N3CCCC(C)C3)CC2)cc1OC.O=C(O)C(=O)O", "note": "(stereo not shown)", "hERG current change (%, negative = inhibition) at 1uM": -3.23},
      {"compound": "CN1C(=S)SC(/[N+]([O-])=C\\c2ccccc2F)C1(C)C", "note": "(stereo not shown)", "hERG current change (%, negative = inhibition) at 1uM": -0.308},
      {"compound": "CCOC(=O)N1CCN(C(=O)c2cc3c(s2)-c2ccc(Cl)cc2S(=O)(=O)C3)CC1", "hERG current change (%, negative = inhibition) at 1uM": -5.47},
      {"compound": "COc1ccc(/C=N/NC(=O)c2cccc([N+](=O)[O-])c2)cc1OC(=O)c1ccccc1", "hERG current change (%, negative = inhibition) at 1uM": 10.6},
      {"compound": "O=C(Cn1cnc2c(nnn2Cc2ccc(F)cc2)c1=O)NCc1ccc(F)cc1", "hERG current change (%, negative = inhibition) at 1uM": 20.7},
      {"compound": "CN1CCN(c2ccc(NC(=O)COc3ccc(Cl)cc3Cl)cc2)CC1", "hERG current change (%, negative = inhibition) at 1uM": 6.42},
      {"compound": "O=S(=O)(NC1CCCCC1N1CCN(c2ccc(F)cc2)CC1)c1ccc(Cl)cc1", "note": "(stereo not shown)", "hERG current change (%, negative = inhibition) at 1uM": 16.7},
      {"compound": "C/C(=N\\Nc1ccc(Cl)c(C(=O)O)c1)c1cccs1", "hERG current change (%, negative = inhibition) at 1uM": 7.94},
      {"compound": "COc1ccc(NC(=O)CCNS(=O)(=O)c2cccc3nonc23)c(OC)c1", "hERG current change (%, negative = inhibition) at 1uM": 6.54},
      {"compound": "CCOCC(=O)Nc1ccc([N+](=O)[O-])cc1C", "hERG current change (%, negative = inhibition) at 1uM": 6.25},
      {"compound": "COc1cc(NC(=O)c2cc(C(C)C)on2)cc(OC)c1OC", "hERG current change (%, negative = inhibition) at 1uM": 10.9},
      {"compound": "CC(=O)NC(CC(=O)Nc1cccc(S(=O)(=O)N2CCCC2)c1)c1ccccc1", "note": "(stereo not shown)", "hERG current change (%, negative = inhibition) at 1uM": 9.27},
      {"compound": "Cc1ccc(CNC(=O)CCn2cc(-c3ccc(F)cc3)nc2-c2ccncc2)cc1", "hERG current change (%, negative = inhibition) at 1uM": -10.5},
      {"compound": "CS(=O)(=O)N(CC(=O)NCCSc1ccc(Cl)cc1)c1ccc2c(c1)OCO2", "hERG current change (%, negative = inhibition) at 1uM": 10.6},
      {"compound": "O=C(O)CC(SCC(=O)NC1CCCc2ccccc21)C(=O)O", "note": "(stereo not shown)", "hERG current change (%, negative = inhibition) at 1uM": 7.22},
      {"compound": "CCCc1nc2ccccc2c(=O)n1NC(=O)c1c(O)c2cccc3c2n(c1=O)CCC3", "hERG current change (%, negative = inhibition) at 1uM": 9.52},
      {"compound": "O=C(COc1ccc(S(=O)(=O)N2CCc3ccccc32)cc1Cl)NCc1ccccn1", "hERG current change (%, negative = inhibition) at 1uM": 9.98},
      {"compound": "O=C(c1cccc([N+](=O)[O-])c1)N1CCN(C(=O)c2ccco2)CC1", "hERG current change (%, negative = inhibition) at 1uM": 0.101},
      {"compound": "CCC(=O)NCCc1cc2ccc(C)cc2[nH]c1=O", "hERG current change (%, negative = inhibition) at 1uM": 10.7},
      {"compound": "Nc1cccc2c1C(=O)N(C(=O)c1ccc(Cl)c(S(=O)(=O)N3CCCCCC3)c1)C2=O", "hERG current change (%, negative = inhibition) at 1uM": 13.1},
      {"compound": "COc1ccc(S(N)(=O)=O)cc1C(=O)NNC(=O)CN(C)S(=O)(=O)c1ccc(Cl)cc1", "hERG current change (%, negative = inhibition) at 1uM": 9.62},
      {"compound": "O=c1cc(CN2CCc3ccccc32)nc2sccn12", "hERG current change (%, negative = inhibition) at 1uM": 1.13},
      {"compound": "CCCCC1C2C(=O)N(c3ccccc3)C(=O)C2ON1c1ccccc1", "note": "(stereo not shown)", "hERG current change (%, negative = inhibition) at 1uM": 8.86},
      {"compound": "Cc1cc(C)nc(N2CCCC(C(=O)Nc3nnc(C)s3)C2)n1", "note": "(stereo not shown)", "hERG current change (%, negative = inhibition) at 1uM": -2.18},
      {"compound": "O=C(O)c1cc(N/N=C/c2c(O)ccc3ccccc23)ccc1Cl", "hERG current change (%, negative = inhibition) at 1uM": 12.4},
      {"compound": "COC(=O)[C@H](Cc1ccccc1)NC(=O)C1(OC(C)=O)CC(OC(C)=O)C(OC(C)=O)C(OC(C)=O)C1", "note": "(stereo partly shown)", "hERG current change (%, negative = inhibition) at 1uM": 18.5},
      {"compound": "CC(C)c1nn(-c2cc(C(F)(F)F)ccn2)c(=O)o1", "hERG current change (%, negative = inhibition) at 1uM": 16.5},
      {"compound": "COc1ccc(NS(=O)(=O)c2ccc(/C=C/C(=O)O)cc2)cc1S(=O)(=O)N1CCOCC1", "hERG current change (%, negative = inhibition) at 1uM": 10.7},
      {"compound": "Cc1ccccc1OCCSCc1nc2ccccc2[nH]1", "hERG current change (%, negative = inhibition) at 1uM": 3.23},
      {"compound": "Cc1c(C(=O)NCCN2C(=O)S/C(=C\\c3cccs3)C2=O)cccc1[N+](=O)[O-]", "hERG current change (%, negative = inhibition) at 1uM": -1.11},
      {"compound": "Cn1cnc2c(N3CCCCC3)nccc21", "hERG current change (%, negative = inhibition) at 1uM": 6.52},
      {"compound": "Cc1ccc(NC(=O)Cc2noc3ccccc23)nc1", "hERG current change (%, negative = inhibition) at 1uM": -0.574},
      {"compound": "CC(C)N=C(NC#N)SCc1ccccc1", "hERG current change (%, negative = inhibition) at 1uM": -5.91},
      {"compound": "COc1cc(Cn2nnc3ccccc32)ccc1O", "hERG current change (%, negative = inhibition) at 1uM": 11.4},
      {"compound": "CCCN1CCC(=O)N([C@H](COc2ccccc2)c2ccccc2)CC1", "hERG current change (%, negative = inhibition) at 1uM": -76.5},
      {"compound": "Cn1nc([N+](=O)[O-])c2c(-c3nc4ccccc4s3)c(N)n(C3CCCCC3)c2c1=O", "hERG current change (%, negative = inhibition) at 1uM": 10.4},
      {"compound": "CC(C)Oc1ccc(Cc2cnc(N)nc2N)cc1", "hERG current change (%, negative = inhibition) at 1uM": 1.46},
      {"compound": "Cc1csc2nc(O)c(C(=O)NC3CCCCC3)c(=O)n12", "hERG current change (%, negative = inhibition) at 1uM": -0.665},
      {"compound": "COc1ccc2nc(SC(C(=O)c3ccccc3)c3ccccc3)nc(C)c2c1", "note": "(stereo not shown)", "hERG current change (%, negative = inhibition) at 1uM": 15.9},
      {"compound": "CC(C)c1ccccc1NC(=S)NCc1ccccc1F", "hERG current change (%, negative = inhibition) at 1uM": 12.8},
      {"compound": "COCCNC(=O)c1onc(CSc2ccc(C)c(C)c2)c1C(=O)O", "hERG current change (%, negative = inhibition) at 1uM": -8.37},
      {"compound": "O=C(Cc1ccccc1)Nc1ccccc1C(=O)N1CCN(c2ccccc2)CC1", "hERG current change (%, negative = inhibition) at 1uM": 7.3},
      {"compound": "CC(=O)N1CCc2c(sc(NC(=O)C3CCCCC3)c2C(N)=O)C1", "hERG current change (%, negative = inhibition) at 1uM": 1.91},
      {"compound": "COc1ccc(OCCCCN2CCC(C)CC2)cc1.O=C(O)C(=O)O", "hERG current change (%, negative = inhibition) at 1uM": 0.418},
      {"compound": "CCCOc1ccc(N2CC(C(=O)Nc3ccc(N4CCOCC4)cc3)CC2=O)cc1", "note": "(stereo not shown)", "hERG current change (%, negative = inhibition) at 1uM": 20.3}
    ]}
  ]
}
